# Assay results from patent US7592316B2, “Peptides as NS3-serine protease inhibitors of hepatitis C virus” (Schering Corporation, priority 2000, dated 2009).
# *1 amine or outer side, *2 acyl side, *3 side chain or, on linkers, in order; H or OH if unused. Where a SMILES comes first, the peptide text is derived from it. [ ]: non-standard residue; d: D form. The star is where a group is joined. ξ: configuration not given here. Pro(4,4-S(CH2)3S) = O=C(O)[C@@H]1CC2(CN1)SCCCS2; Pro(4S-Me) = C[C@@H]1CN[C@H](C(=O)O)C1; X19 = CCC[C@@H](N[*:1])C(=O)C(=O)[*:2]; Pro(4R-Me) = C[C@H]1CN[C@H](C(=O)O)C1; X12 = CCC[C@H](N[*:1])C(=O)C(=O)[*:2]; X102 = CCCCCC(N[*:1])C(=O)C(=O)[*:2]; Isobutyloxycarbonyl = CC(C)COC(=O)*; X46 = CSCC(N[*:1])C(=O)C(=O)[*:2]; Hyp = O=C(O)[C@@H]1C[C@@H](O)CN1; X2 = CCCC(N[*:1])C(=O)C(=O)[*:2]; Phg = N[C@H](C(=O)O)c1ccccc1; Tle = CC(C)(C)[C@H](N)C(=O)O; ξPhg = NC(C(=O)O)c1ccccc1; ξTle = CC(C)(C)C(N)C(=O)O; tBu = CC(C)(C)*
# Molecular target: HCV NS3/NS4A protease (strain 1a) (Hepatitis C virus genotype 1a, UniProt P27958)
# Assay: biochemical
# Details: HCV protease continuous assay results, Table 1; read-out: Ki* Range
row,Structure (SMILES),Ki [µM]
1,CCCC(NC(=O)[C@@H]1CC(OCCOc2ccccc2)CN1C(=O)C(NC(=O)OCC(C)C)C1CCCCC1)C(=O)C(=O)NCC(=O)NC(C(=O)N(C)C)c1ccccc1 (stereo partly shown) [Example 258],0.001 to 0.1
2,CCCC(NC(=O)[C@@H]1CC(OCCOc2ccccc2)CN1C(=O)C(NC(=O)OC(C)(C)C)C1CCCCC1)C(=O)C(=O)NCC(=O)NC(C(=O)N(C)C)c1ccccc1 (stereo partly shown) [Example 259],0.001 to 0.1
3,CCCCCC(NC(=O)[C@@H]1C[C@@H](OC(C)(C)C)CN1C(=O)[C@@H](NC(=O)OCC(C)C)C(C)(C)C)C(=O)C(=O)NCC(=O)O (stereo partly shown) [Example 260],> 1
4,CCC[C@@H](NC(=O)[C@@H]1C[C@@H](C)CN1C(=O)[C@@H](NC(=O)OCC(C)C)C(C)(C)C)C(=O)C(=O)NCC(=O)NC(C(=O)N(C)C)c1ccccc1 (stereo partly drawn) [Example 261] (Isobutyloxycarbonyl-[Tle][Pro(4R-Me)][X19]G[ξPhg]-NMe2),> 1
5,CCC[C@H](NC(=O)[C@@H]1C[C@@H](C)CN1C(=O)[C@@H](NC(=O)OCC(C)C)C(C)(C)C)C(=O)C(=O)NCC(=O)NC(C(=O)N(C)C)c1ccccc1 (stereo partly drawn) [Example 262] (Isobutyloxycarbonyl-[Tle][Pro(4R-Me)][X12]G[ξPhg]-NMe2),0.001 to 0.1
6,CCCC(NC(=O)[C@@H]1C[C@@H](C)CN1C(=O)[C@@H](NC(=O)OCC(C)C)C(C)(C)C)C(=O)C(=O)NCC(=O)NC(C(=O)N(C)C)c1ccccc1 (stereo partly drawn) [Example 263] (Isobutyloxycarbonyl-[Tle][Pro(4R-Me)][X2]G[ξPhg]-NMe2),0.101 to 1
7,CCCC(NC(=O)[C@@H]1C[C@H](C)CN1C(=O)[C@@H](NC(=O)OCC(C)C)C(C)(C)C)C(=O)C(=O)NCC(=O)NC(C(=O)N(C)C)c1ccccc1 (stereo partly drawn) [Example 264] (Isobutyloxycarbonyl-[Tle][Pro(4S-Me)][X2]G[ξPhg]-NMe2),0.101 to 1
8,CCCCC(NC(=O)[C@@H]1C[C@@H](OC(C)(C)C)CN1C(=O)[C@@H](NC(=O)OCC(C)C)C(C)(C)C)C(=O)C(=O)NCC(=O)N[C@H](CN=[N+]=[N-])c1ccccc1 (stereo partly shown) [Example 265],> 1
9,CCC[C@@H](NC(=O)[C@@H]1[C@@H]2C(CN1C(=O)[C@@H](NC(=O)OCC(C)C)C(C)(C)C)[C@@H]1CC[C@@H]2C1)C(=O)C(=O)NCC(=O)NC(C(=O)N(C)C)c1ccccc1 (stereo partly shown) [Example 266],0.101 to 1
10,CCC[C@H](NC(=O)[C@@H]1[C@@H]2C(CN1C(=O)[C@@H](NC(=O)OCC(C)C)C(C)(C)C)[C@@H]1CC[C@@H]2C1)C(=O)C(=O)NCC(=O)NC(C(=O)N(C)C)c1ccccc1 (stereo partly shown) [Example 267],0.001 to 0.1
11,CCCCC(NC(=O)[C@@H]1C[C@@H](OC(C)(C)C)CN1C(=O)[C@@H](NC(=O)OCC(C)C)C(C)(C)C)C(=O)C(=O)NCC(=O)NC[C@@H](NC(=O)OC(C)(C)C)c1ccccc1 (stereo partly shown) [Example 268],> 1
12,CCCC(NC(=O)[C@@H]1[C@@H]2C(CN1C(=O)[C@@H](NC(=O)OCC(C)C)C(C)(C)C)[C@@H]1CC[C@@H]2C1)C(=O)C(=O)NCC(=O)NC(C(=O)N(C)C)c1ccccc1 (stereo partly shown) [Example 269],0.001 to 0.1
13,CCCCCC(NC(=O)[C@@H]1C[C@@H](OC(C)(C)C)CN1C(=O)C(NC(=O)OCC(C)C)C(C)(C)C)C(=O)C(=O)NCC(=O)N[C@H](C(=O)N(C)C)c1ccccc1 (stereo partly shown) [Example 270] (Isobutyloxycarbonyl-[ξTle][Hyp](tBu)[X102]G[Phg]-NMe2),> 1
14,"CSCC(NC(=O)[C@@H]1CC2(CN1C(=O)[C@@H](NC(=O)OCC(C)C)C(C)(C)C)SCCCS2)C(=O)C(=O)NCC(=O)NC(C(=O)N(C)C)c1ccccc1 (stereo partly shown) [Example 271] (Isobutyloxycarbonyl-[Tle][Pro(4,4-S(CH2)3S)][X46]G[ξPhg]-NMe2)",0.001 to 0.1
15,CCCCC(NC(=O)[C@@H]1C[C@@H](OC(C)(C)C)CN1C(=O)[C@@H](NC(=O)OCC(C)C)C(C)(C)C)C(=O)C(=O)NCC(=O)N[C@H](CNC(C)=O)c1ccccc1 (stereo partly shown) [Example 272],> 1
16,CCCCC(NC(=O)[C@@H]1C[C@@H](OC(C)(C)C)CN1C(=O)[C@@H](NC(=O)OCC(C)C)C(C)(C)C)C(=O)C(=O)NCC(=O)N[C@H](CNC(=O)c1ccco1)c1ccccc1 (stereo partly shown) [Example 273],> 1
17,C=CCCC(NC(=O)[C@@H]1C[C@@H](OC(C)(C)C)CN1C(=O)[C@@H](NC(=O)OCC(C)C)C(C)(C)C)C(=O)C(=O)NCC(=O)OC (stereo partly shown) [Example 274],> 1
18,C=CCCC(NC(=O)[C@@H]1C[C@@H](OC(C)(C)C)CN1C(=O)[C@@H](NC(=O)OCC(C)C)C(C)(C)C)C(=O)C(=O)NCC(=O)O (stereo partly shown) [Example 275],> 1
19,CCCC(NC(=O)[C@@H]1C[C@@H](OCCOc2ccccc2)CN1C(=O)[C@@H](O)C(C)(C)C)C(=O)C(=O)NCC(=O)N[C@H](C(=O)N(C)C)c1ccccc1 (stereo partly shown) [Example 281],> 1
20,CCCCC(NC(=O)[C@@H]1C[C@@H](OC(C)(C)C)CN1C(=O)[C@@H](NC(=O)OCC(C)C)C(C)(C)C)C(=O)C(=O)NCC(=O)O (stereo partly shown) [Example 282],> 1
21,CCCCC(NC(=O)[C@@H]1C[C@@H](OC(C)(C)C)CN1C(=O)[C@@H](NC(=O)OCC(C)C)C(C)(C)C)C(=O)C(=O)NCC(=O)N[C@@H](CNC(=O)c1ccco1)c1ccccc1 (stereo partly shown) [Example 283],> 1

row,Structure (SMILES),Ki [µM]
1,CCCCC(NC(=O)[C@@H]1C[C@@H](OC(C)(C)C)CN1C(=O)[C@@H](NC(=O)OCC(C)C)C(C)(C)C)C(=O)C(=O)NCC(=O)N[C@@H](CNC(C)=O)c1ccccc1 (stereo partly shown) [Example 284],> 1
2,CCCCC(NC(=O)[C@@H]1C[C@@H](OC(C)(C)C)CN1C(=O)[C@@H](NC(=O)OCC(C)C)C(C)(C)C)C(=O)C(=O)NCC(=O)N[C@@H](CN=[N+]=[N-])c1ccccc1 (stereo partly shown) [Example 285],> 1
3,CCCCC(NC(=O)[C@@H]1C[C@@H](OC(C)(C)C)CN1C(=O)[C@@H](NC(=O)OCC(C)C)C(C)(C)C)C(=O)C(=O)NCC(=O)NC[C@H](NC(=O)OC(C)(C)C)c1ccccc1 (stereo partly shown) [Example 286],> 1
4,CCC[C@H](NC(=O)[C@@H]1[C@@H]2[C@H](CN1C(=O)[C@@H](NC(=O)OC(C)(C)C)C(C)(C)C)C2(C)C)C(=O)C(N)=O [Example 289],0.101 to 1
5,CCCC(NC(=O)[C@@H]1CC2(CN1C(=O)C(OC(C)=O)C(C)(C)C)SCCCS2)C(=O)C(=O)NCC(=O)NC(C(=O)N(C)C)c1ccccc1 (stereo partly shown) [Example 290],> 1
6,CCCCC(NC(=O)[C@@H]1C[C@@H](OC(C)(C)C)CN1C(=O)[C@@H](NC(=O)OCC(C)C)C(C)(C)C)C(=O)C(=O)NCC(=O)N[C@@H](c1ccccc1)[C@@H](C)O (stereo partly shown) [Example 291],> 1
7,CCCC(NC(=O)[C@@H]1CC2(CN1C(=O)C(O)C(C)(C)C)SCCCS2)C(=O)C(=O)NCC(=O)NC(C(=O)N(C)C)c1ccccc1 (stereo partly shown) [Example 292],> 1
8,CCCCC(NC(=O)[C@@H]1C[C@@H](OC(C)(C)C)CN1C(=O)[C@@H](NC(=O)OCC(C)C)C(C)(C)C)C(=O)C(=O)NCC(=O)OC (stereo partly shown) [Example 293],> 1
9,CCCCC(NC(=O)[C@@H]1C[C@@H](OC(C)(C)C)CN1C(=O)[C@@H](NC(=O)OCC(C)C)C(C)(C)C)C(=O)C(=O)NCC(=O)NC[C@@H](N)c1ccccc1 (stereo partly shown) [Example 295],> 1
10,CCCCC(NC(=O)[C@@H]1C[C@@H](OC(C)(C)C)CN1C(=O)[C@@H](NC(=O)OCC(C)C)C(C)(C)C)C(=O)C(=O)NCC(=O)N[C@H](C(C)=O)c1ccccc1 (stereo partly shown) [Example 298],> 1
11,C=CCCC(NC(=O)[C@@H]1[C@@H]2[C@H](CN1C(=O)[C@H](NC(=O)OC(C)(C)C)C(C)(C)C)C2(C)C)C(=O)C(=O)NCC(=O)OC (stereo partly shown) [Example 299],0.101 to 1
12,C=CCCC(NC(=O)[C@@H]1[C@@H]2[C@H](CN1C(=O)[C@H](NC(=O)OC(C)(C)C)C(C)(C)C)C2(C)C)C(=O)C(=O)NCC(=O)O (stereo partly shown) [Example 300],0.101 to 1
13,CCC[C@H](NC(=O)[C@@H]1C[C@@H](OC(C)(C)C)CN1C(=O)[C@@H](NC(=O)OCC(C)C)C1CCCCC1)C(=O)C(=O)O [Example 302],> 1
14,CCCC(NC(=O)[C@@H]1C[C@@H](OC(C)(C)C)CN1C(=O)[C@@H](NC(=O)OCC(C)C)C(C)(C)C)C(=O)C(=O)NCC(=O)N[C@H](CO)c1ccccc1 (stereo partly shown) [Example 303],0.101 to 1
15,CCCC(NC(=O)[C@@H]1C[C@@H](OC(C)(C)C)CN1C(=O)[C@@H](NC(=O)OCC(C)C)C1CCCCC1)C(=O)C(N)=O (stereo partly shown) [Example 304],> 1
16,CCCCC(NC(=O)[C@@H]1[C@@H]2[C@H](CN1C(=O)[C@@H](NC(=O)OC(C)(C)C)C(C)(C)C)C2(C)C)C(=O)C(=O)OC (stereo partly shown) [Example 305],> 1
17,CCCC(NC(=O)[C@@H]1C[C@@H](OC(C)(C)C)CN1C(=O)[C@@H](NC(=O)OCC(C)C)C(C)(C)C)C(=O)C(=O)NCC(=O)N[C@H](CO)C1SCCS1 (stereo partly shown) [Example 306],> 1
18,CCCCC(NC(=O)[C@@H]1[C@@H]2[C@H](CN1C(=O)[C@@H](NC(=O)OC(C)(C)C)C(C)(C)C)C2(C)C)C(=O)C(=O)O (stereo partly shown) [Example 307],0.101 to 1
19,CCCCC(NC(=O)[C@@H]1[C@@H]2[C@H](CN1C(=O)[C@@H](NC(=O)OC(C)(C)C)C(C)(C)C)C2(C)C)C(=O)C(N)=O (stereo partly shown) [Example 308],0.101 to 1
20,CCCC(NC(=O)[C@@H]1C[C@@H](OC(C)(C)C)CN1C(=O)[C@@H](NC(=O)OCC(C)C)C(C)(C)C)C(=O)C(=O)NCC(=O)N[C@H](CO)C1CC1 (stereo partly shown) [Example 310],> 1
21,CCCC(NC(=O)[C@@H]1C[C@@H](OC(C)(C)C)CN1C(=O)[C@@H](NC(=O)OCC(C)C)C1CCCCC1)C(=O)C(=O)OC (stereo partly shown) [Example 312],> 1

# Same assay, conditions: Ki* Range, HCV protease continuous assay results, Table 1
row,Structure (SMILES),Ki [µM]
1,CCCCC(NC(=O)[C@@H]1C[C@@H](OC(C)(C)C)CN1C(=O)[C@@H](NC(=O)OCC(C)C)C(C)(C)C)C(=O)C(=O)NCC(=O)N[C@H](COP(=O)(Oc1ccccc1)Oc1ccccc1)c1ccccc1 (stereo partly shown) [Example 297],> 1
